Inconclusive means that the source gave no clear call. Such entries were picked first, then a sample of the others. Potencies beside an inconclusive call are fits to weak or partial responses and may not hold up. Calls of active or inactive are those of the source. The call rests on the fitted dose curve; in most records, active means well fitted cell-killing curve with a large enough effect in the repeat runs; inconclusive means weak or mixed curves, or effect the other way; inactive means no such curve, though single readings can be large or run the other way.
Assay: qHTS assay to identify small molecule antagonists of the peroxisome proliferator-activated receptor gamma (PPARg) signaling pathway - cell viability counter screen (AID 743194); further: nearly all actives have a fitted effect of over 55% in size
Settings: PPARg-bla HEK293H viability, CellTiter-Glo luminescence, 17 h, co-treated with 50 nM rosiglitazone; activity change, negative = cytotoxicity: at 62.6 µM (top of the series) unless noted
Procedure, shortened: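 Viability was measured as CellTiter-Glo luminescence in GeneBLAzer PPARg UAS-bla HEK293H cells. These cells had been exposed 17 h at 37 C to compounds together with rosiglitazone at 50 nM final, with the beta-lactamase readout taken in the same wells.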
On the % scale 0 is the no-effect control and ±100 the full control effect; potency means the concentration at half of the fitted maximal effect; tags describe the fitted curve by direction and shape.

Row | SMILES | Potency | activity change, negative = cytotoxicity
1 | CN(C)C(=O)Nc1ccc(Cl)c(Cl)c1 | inconclusive: 0.871 µM [rising, partial curve, poor fit] | 
2 | CCOC(=O)CC(CC(=O)OCC)(OC(C)=O)C(=O)OCC | inconclusive: 19.5 µM [cytotoxic, partial curve, poor fit] | 
3 | CC(=O)[O][Al] |  | inactive: 23% [at 81.1 µM]
4 | FC(F)(F)c1ccc(Cl)c(Cl)c1 | inconclusive: 19.1 µM [rising, single point] | 
5 | CCCCC(CC)COC(=O)CC#N (stereo not given) |  | inactive: 14.7%
6 | CC(C)=CCCC(C)C=O (stereo not given) | inconclusive: 54.9 µM [cytotoxic, single point] | 
7 | O=C(O)Cc1cccc(-c2cc(CCCCCCc3ccc(O[C@H]4O[C@H](CO)[C@@H](O)[C@H](O)[C@@H]4O)c(-c4cccc(CC(=O)O)c4)c3)ccc2O[C@H]2O[C@H](CO)[C@@H](O)[C@H](O)[C@@H]2O)c1 | inconclusive: 0.0013 µM [cytotoxic, single point] | 
8 | CCCCOc1cc(C(=O)NCCN(CC)CC)c2ccccc2n1 | inconclusive: 0.0024 µM [cytotoxic, full curve, poor fit] | 
9 | NC(=O)Nc1ccccc1 | inconclusive: 0.463 µM [rising, full curve, poor fit] | 
10 | COC(=O)C(C)O (stereo not given) | inconclusive: 2.24 µM [rising, partial curve, poor fit] | 
11 | CC(C)C1OCCN1CCOC(=O)NCCCCCCNC(=O)OCCN1CCOC1C(C)C (stereo not given) | inconclusive: 0.549 µM [rising, partial curve, poor fit] | 
12 | CC[N+](C)(C)c1cccc(O)c1 | inconclusive: 0.119 µM [cytotoxic, single point] | 
13 | O=[N+]([O-])c1ccc(/C=N\O)o1 |  | inactive: 18.9%
14 | Cc1ccc(S(=O)(=O)NC(=O)NC2CCCC2)cc1 | inconclusive: 0.298 µM [cytotoxic, full curve, poor fit] | 
15 | CCC(O)OCCCOC (stereo not given) | inconclusive: 14.2 µM [rising, partial curve] | 
16 | CCC(=O)O[C@]1(C(=O)COC)[C@@H](C)C[C@H]2[C@@H]3CCC4=CC(=O)C=C[C@]4(C)C3(F)[C@@H](O)C[C@@]21C (stereo not given in full) |  | inactive: 1.44%
17 | CC(=O)Nc1ccc(C)c(Cl)c1 |  | inactive: 1.21%
18 | CCCCCC(=O)OCCc1ccccc1 |  | inactive: 21.5%
19 | c1ccc2c(CC3=NCCN3)cccc2c1 |  | inactive: 1.3%
20 | CCOCCOCCOCCO | inconclusive: 0.155 µM [rising, partial curve, poor fit] | 

Row | SMILES | Potency | activity change, negative = cytotoxicity
21 | O=C1NC(=O)C2CC=CCC12 (stereo not given) | inconclusive: 3.47 µM [cytotoxic, full curve, poor fit] | 
22 | O=C(O)CCCC[P+](c1ccccc1)(c1ccccc1)c1ccccc1 |  | inactive: 1.49%
23 | NCC(=O)CCC(=O)O |  | inactive: -1.84%
24 | O=S(=O)(O)CCN1CCN(CCO)CC1 |  | inactive: 0.403%
25 | FC(F)OC(Cl)C(F)(F)F (stereo not given) | inconclusive: 13.8 µM [rising, partial curve, poor fit] | 
26 | C=COCCOCCOCCOC=C |  | inactive: 2.28%
27 | C[Si](C)O[Si](C)(C)O[Si](C)(C)O[Si](C)C | inconclusive: 61.6 µM [rising, single point] | 
28 | O=c1[nH]nnc2ccccc12 | inconclusive: 8.71 µM [cytotoxic, full curve, poor fit] | 
29 | CC(CCO)CCc1ccccc1 (stereo not given) | inconclusive: 0.309 µM [rising, full curve] | 
30 | NC(Cc1ccc(Cl)cc1)C(=O)O (stereo not given) |  | inactive: 2.82% [at 0.55 µM]
31 | CC1CCC(CO)CC1 (stereo not given) |  | inactive: 2.41% [at 81.1 µM]
32 | COc1ccccc1NC(=O)CC(C)=O | inconclusive: 10.8 µM [rising, partial curve, poor fit] | 
33 | CCOC(=O)CC(=O)OCC | inconclusive: 9.46 µM [rising, full curve, poor fit] | 
34 | CCC(Cl)CCC(Cl)C(Cl)CC(Cl)C(Cl)C(Cl)CCl (stereo not given) |  | inactive: 18.2%
35 | CCC(=O)OCCOc1ccccc1 |  | inactive: 3.35%
36 | CCOC(=O)C(=O)CCc1ccccc1 | inconclusive: 26.6 µM [rising, partial curve, poor fit] | 
37 | CC(O)CN(CCCN(C)C)CCCN(C)C (stereo not given) | inconclusive: 0.0977 µM [rising, full curve, poor fit] | 
38 | COc1cc2nc(N3CCN(C(=O)C4COc5ccccc5O4)CC3)nc(N)c2cc1OC (stereo not given) |  | inactive: -16.8%
39 | CCOC(=O)COC(=O)c1ccccc1C(=O)OCC | inconclusive: 6.16 µM [rising, full curve, poor fit] | 
40 | CCCCC(CC)CO (stereo not given) | inconclusive: 60.9 µM [cytotoxic, single point] | 

— PubChem BioAssay (Tox21)
